No constants are given. Whether binding was seen depends on the method and setting. In cells and extracts the contact can be indirect. Some binding calls cover weakened binding; strength is not graded here. Sequences can lack the tags named with a protein.
T1: Hmg2-GFP (S. cerevisiae) (UniProt P12684)
T1 sequence (chain, polyubiquitin chain conjugated in cells (sites not printed)): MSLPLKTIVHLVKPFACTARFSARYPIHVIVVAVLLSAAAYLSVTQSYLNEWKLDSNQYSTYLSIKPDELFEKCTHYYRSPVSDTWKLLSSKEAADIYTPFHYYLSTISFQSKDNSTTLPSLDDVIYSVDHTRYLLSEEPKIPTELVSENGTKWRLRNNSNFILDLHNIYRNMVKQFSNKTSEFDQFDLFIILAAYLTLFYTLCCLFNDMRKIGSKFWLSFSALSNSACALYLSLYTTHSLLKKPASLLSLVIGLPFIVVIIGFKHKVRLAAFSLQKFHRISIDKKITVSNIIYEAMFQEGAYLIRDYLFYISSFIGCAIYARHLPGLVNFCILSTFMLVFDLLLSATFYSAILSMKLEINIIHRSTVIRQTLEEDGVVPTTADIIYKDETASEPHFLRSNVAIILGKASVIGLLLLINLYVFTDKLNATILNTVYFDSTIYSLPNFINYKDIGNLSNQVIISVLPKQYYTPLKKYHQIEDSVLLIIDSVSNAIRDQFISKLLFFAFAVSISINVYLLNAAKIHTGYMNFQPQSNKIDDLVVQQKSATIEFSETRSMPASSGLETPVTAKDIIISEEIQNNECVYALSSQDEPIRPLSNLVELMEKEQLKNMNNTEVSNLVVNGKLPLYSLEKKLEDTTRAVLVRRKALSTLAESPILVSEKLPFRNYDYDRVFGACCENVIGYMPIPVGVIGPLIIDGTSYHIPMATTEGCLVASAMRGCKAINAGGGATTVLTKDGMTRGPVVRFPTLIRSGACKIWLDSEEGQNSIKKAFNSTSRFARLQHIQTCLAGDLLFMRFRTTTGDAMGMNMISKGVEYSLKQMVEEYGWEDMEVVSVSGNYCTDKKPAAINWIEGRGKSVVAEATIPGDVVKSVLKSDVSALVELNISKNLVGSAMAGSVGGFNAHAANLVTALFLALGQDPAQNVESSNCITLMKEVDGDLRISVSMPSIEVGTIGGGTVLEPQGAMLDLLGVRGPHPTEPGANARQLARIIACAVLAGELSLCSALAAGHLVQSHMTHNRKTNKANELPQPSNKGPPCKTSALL


Target: T1, Hmg2-GFP (S. cerevisiae)
Assay: co-IP; substrate (Hmg2-GFP, Ste6*-GFP, CPY*-GFP with GFP-Trap; Pdr5*-Myc with Myc Trap) precipitated from yeast microsomes solubilised in Tween IP buffer (500 mM NaCl, 50 mM Tris pH 7.5, 10 mM EDTA, 1.5% Tween-20), overnight 4°C; blots with anti-HA, anti-Cdc48

Binder	binding
Der1-HA (protein, UniProt P38307 1-211) MDAVILNLLGDIPLVTRLWTIGCLVLSGLTSLRIVDPGKVVYSYDLVFKKGQYGRLLYSIFDYGAFNWISMINIFVSANHLSTLENSFNLRRKFCWIIFLLLVILVKMTSIEQPAASLGVLLHENLVYYELKKNGNQMNVRFFGAIDVSPSIFPIYMNAVMYFVYKRSWLEIAMNFMPGHVIYYMDDIIGKIYGIDLCKSPYDWFRNTETP	no binding
Dfm1-K68A (protein, UniProt Q12743 1-341) MAGPRNVRTLHGNGGRNNDVMGPKEFWLNIPPITRTLFTLAIVMTIVGRLNLINPWYFIYVWNLTFKAVQIWRLLTSCVMLSSRAMPALMELYSIYDRSSQLERGHFGPGLSNRRGPMVTVDYAYYLCFCILAITTATTIIYGSYYPVVLTSGFISCITYTWSIDNANVQIMFYGLIPVWGKYFPLIQLFISFVFNEGDFVISLIGFTTGYLYTCLDTHTLGPIWGMISRKADPTYGISPNGKFSTPWWFTSLYARITGAHNETATFNNNFANVPSSQRETRTFSGRGQRLGTAPATLSQTSGTDSGRASGSQLRSGPSNLNQFQGRGQRVGQTNSPSDSQ	no binding
Dfm1-L64A (protein, UniProt Q12743 1-341) MAGPRNVRTLHGNGGRNNDVMGPKEFWLNIPPITRTLFTLAIVMTIVGRLNLINPWYFIYVWNATFKKVQIWRLLTSCVMLSSRAMPALMELYSIYDRSSQLERGHFGPGLSNRRGPMVTVDYAYYLCFCILAITTATTIIYGSYYPVVLTSGFISCITYTWSIDNANVQIMFYGLIPVWGKYFPLIQLFISFVFNEGDFVISLIGFTTGYLYTCLDTHTLGPIWGMISRKADPTYGISPNGKFSTPWWFTSLYARITGAHNETATFNNNFANVPSSQRETRTFSGRGQRLGTAPATLSQTSGTDSGRASGSQLRSGPSNLNQFQGRGQRVGQTNSPSDSQ	no binding
Dfm1-L75A (protein, UniProt Q12743 1-341) MAGPRNVRTLHGNGGRNNDVMGPKEFWLNIPPITRTLFTLAIVMTIVGRLNLINPWYFIYVWNLTFKKVQIWRLATSCVMLSSRAMPALMELYSIYDRSSQLERGHFGPGLSNRRGPMVTVDYAYYLCFCILAITTATTIIYGSYYPVVLTSGFISCITYTWSIDNANVQIMFYGLIPVWGKYFPLIQLFISFVFNEGDFVISLIGFTTGYLYTCLDTHTLGPIWGMISRKADPTYGISPNGKFSTPWWFTSLYARITGAHNETATFNNNFANVPSSQRETRTFSGRGQRLGTAPATLSQTSGTDSGRASGSQLRSGPSNLNQFQGRGQRVGQTNSPSDSQ	no binding
Dfm1-F66A (protein, UniProt Q12743 1-341) MAGPRNVRTLHGNGGRNNDVMGPKEFWLNIPPITRTLFTLAIVMTIVGRLNLINPWYFIYVWNLTAKKVQIWRLLTSCVMLSSRAMPALMELYSIYDRSSQLERGHFGPGLSNRRGPMVTVDYAYYLCFCILAITTATTIIYGSYYPVVLTSGFISCITYTWSIDNANVQIMFYGLIPVWGKYFPLIQLFISFVFNEGDFVISLIGFTTGYLYTCLDTHTLGPIWGMISRKADPTYGISPNGKFSTPWWFTSLYARITGAHNETATFNNNFANVPSSQRETRTFSGRGQRLGTAPATLSQTSGTDSGRASGSQLRSGPSNLNQFQGRGQRVGQTNSPSDSQ	binds
Dfm1-F58A (protein, UniProt Q12743 1-341) MAGPRNVRTLHGNGGRNNDVMGPKEFWLNIPPITRTLFTLAIVMTIVGRLNLINPWYAIYVWNLTFKKVQIWRLLTSCVMLSSRAMPALMELYSIYDRSSQLERGHFGPGLSNRRGPMVTVDYAYYLCFCILAITTATTIIYGSYYPVVLTSGFISCITYTWSIDNANVQIMFYGLIPVWGKYFPLIQLFISFVFNEGDFVISLIGFTTGYLYTCLDTHTLGPIWGMISRKADPTYGISPNGKFSTPWWFTSLYARITGAHNETATFNNNFANVPSSQRETRTFSGRGQRLGTAPATLSQTSGTDSGRASGSQLRSGPSNLNQFQGRGQRVGQTNSPSDSQ	no binding
Dfm1-I71A (protein, UniProt Q12743 1-341) MAGPRNVRTLHGNGGRNNDVMGPKEFWLNIPPITRTLFTLAIVMTIVGRLNLINPWYFIYVWNLTFKKVQAWRLLTSCVMLSSRAMPALMELYSIYDRSSQLERGHFGPGLSNRRGPMVTVDYAYYLCFCILAITTATTIIYGSYYPVVLTSGFISCITYTWSIDNANVQIMFYGLIPVWGKYFPLIQLFISFVFNEGDFVISLIGFTTGYLYTCLDTHTLGPIWGMISRKADPTYGISPNGKFSTPWWFTSLYARITGAHNETATFNNNFANVPSSQRETRTFSGRGQRLGTAPATLSQTSGTDSGRASGSQLRSGPSNLNQFQGRGQRVGQTNSPSDSQ	no binding
Dfm1-K67A (protein, UniProt Q12743 1-341) MAGPRNVRTLHGNGGRNNDVMGPKEFWLNIPPITRTLFTLAIVMTIVGRLNLINPWYFIYVWNLTFAKVQIWRLLTSCVMLSSRAMPALMELYSIYDRSSQLERGHFGPGLSNRRGPMVTVDYAYYLCFCILAITTATTIIYGSYYPVVLTSGFISCITYTWSIDNANVQIMFYGLIPVWGKYFPLIQLFISFVFNEGDFVISLIGFTTGYLYTCLDTHTLGPIWGMISRKADPTYGISPNGKFSTPWWFTSLYARITGAHNETATFNNNFANVPSSQRETRTFSGRGQRLGTAPATLSQTSGTDSGRASGSQLRSGPSNLNQFQGRGQRVGQTNSPSDSQ	no binding

The next lines start with the values.

binding	Binder
binds	Dfm1-W62A (protein, UniProt Q12743 1-341) MAGPRNVRTLHGNGGRNNDVMGPKEFWLNIPPITRTLFTLAIVMTIVGRLNLINPWYFIYVANLTFKKVQIWRLLTSCVMLSSRAMPALMELYSIYDRSSQLERGHFGPGLSNRRGPMVTVDYAYYLCFCILAITTATTIIYGSYYPVVLTSGFISCITYTWSIDNANVQIMFYGLIPVWGKYFPLIQLFISFVFNEGDFVISLIGFTTGYLYTCLDTHTLGPIWGMISRKADPTYGISPNGKFSTPWWFTSLYARITGAHNETATFNNNFANVPSSQRETRTFSGRGQRLGTAPATLSQTSGTDSGRASGSQLRSGPSNLNQFQGRGQRVGQTNSPSDSQ
no binding	Dfm1-R73A (protein, UniProt Q12743 1-341) MAGPRNVRTLHGNGGRNNDVMGPKEFWLNIPPITRTLFTLAIVMTIVGRLNLINPWYFIYVWNLTFKKVQIWALLTSCVMLSSRAMPALMELYSIYDRSSQLERGHFGPGLSNRRGPMVTVDYAYYLCFCILAITTATTIIYGSYYPVVLTSGFISCITYTWSIDNANVQIMFYGLIPVWGKYFPLIQLFISFVFNEGDFVISLIGFTTGYLYTCLDTHTLGPIWGMISRKADPTYGISPNGKFSTPWWFTSLYARITGAHNETATFNNNFANVPSSQRETRTFSGRGQRLGTAPATLSQTSGTDSGRASGSQLRSGPSNLNQFQGRGQRVGQTNSPSDSQ
binds	Dfm1-V69A (protein, UniProt Q12743 1-341) MAGPRNVRTLHGNGGRNNDVMGPKEFWLNIPPITRTLFTLAIVMTIVGRLNLINPWYFIYVWNLTFKKAQIWRLLTSCVMLSSRAMPALMELYSIYDRSSQLERGHFGPGLSNRRGPMVTVDYAYYLCFCILAITTATTIIYGSYYPVVLTSGFISCITYTWSIDNANVQIMFYGLIPVWGKYFPLIQLFISFVFNEGDFVISLIGFTTGYLYTCLDTHTLGPIWGMISRKADPTYGISPNGKFSTPWWFTSLYARITGAHNETATFNNNFANVPSSQRETRTFSGRGQRLGTAPATLSQTSGTDSGRASGSQLRSGPSNLNQFQGRGQRVGQTNSPSDSQ
no binding	Dfm1-W72A (protein, UniProt Q12743 1-341) MAGPRNVRTLHGNGGRNNDVMGPKEFWLNIPPITRTLFTLAIVMTIVGRLNLINPWYFIYVWNLTFKKVQIARLLTSCVMLSSRAMPALMELYSIYDRSSQLERGHFGPGLSNRRGPMVTVDYAYYLCFCILAITTATTIIYGSYYPVVLTSGFISCITYTWSIDNANVQIMFYGLIPVWGKYFPLIQLFISFVFNEGDFVISLIGFTTGYLYTCLDTHTLGPIWGMISRKADPTYGISPNGKFSTPWWFTSLYARITGAHNETATFNNNFANVPSSQRETRTFSGRGQRLGTAPATLSQTSGTDSGRASGSQLRSGPSNLNQFQGRGQRVGQTNSPSDSQ
no binding	Dfm1-Q70A (protein, UniProt Q12743 1-341) MAGPRNVRTLHGNGGRNNDVMGPKEFWLNIPPITRTLFTLAIVMTIVGRLNLINPWYFIYVWNLTFKKVAIWRLLTSCVMLSSRAMPALMELYSIYDRSSQLERGHFGPGLSNRRGPMVTVDYAYYLCFCILAITTATTIIYGSYYPVVLTSGFISCITYTWSIDNANVQIMFYGLIPVWGKYFPLIQLFISFVFNEGDFVISLIGFTTGYLYTCLDTHTLGPIWGMISRKADPTYGISPNGKFSTPWWFTSLYARITGAHNETATFNNNFANVPSSQRETRTFSGRGQRLGTAPATLSQTSGTDSGRASGSQLRSGPSNLNQFQGRGQRVGQTNSPSDSQ

Source: PMC8641752
